# From PubChem BioAssay AID651820 (National Center for Advancing Translational Sciences (NCATS), 2012)
# Values joined by “and” are separate entries in the source; they are usually repeats but may differ in a detail not shown here. Equal values may be shown once. The campaign covered roughly 340,000 compounds. About 12,000 (3.5%) were called active. Inconclusive results, whose numbers are uncertain, are shown with a selection of clear calls. The call rests on the fitted dose curve; in most records, active means well fitted inhibition curve with a large enough effect; inconclusive means small, poorly fitted or top-dose-only effect, or another doubt; inactive means no such curve, though single readings can be large or run the other way. Where the call is inconclusive, the potency comes from a doubtful curve fit.
# Experiment: qHTS Assay for Inhibitors of Hepatitis C Virus (HCV)
# Details: Huh7.5.1 HCVcc-Cre (HCVcc is cell-culture hepatitis C virus) infection, luciferase reporter, 44 h; series mostly up to 41.8 µM
# How it was run: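 A cell-based infection assay in which seeded cells (1,000 per well) receive test compound after 4 h, are inoculated with HCVcc-Cre at approximately 0.5 moi, and are incubated 44 h before luminescence detection.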
# Potency means the concentration at half of the fitted maximal effect; tags describe the fitted curve by direction and shape.
row,SMILES,Potency
1,NS(=O)(=O)c1ccc(CCNC(=O)CN2CCN(c3cccc(Cl)c3)CC2)cc1,"inconclusive: 22.4 µM [inhibitor, single point]"
2,Cc1[nH]c2ccccc2c1C(=O)CSc1ccc(Cl)cc1,inactive
3,CN(C)CCCN(C(=O)c1ccc(Cl)s1)c1nc2cc3c(cc2s1)OCO3,"inconclusive: 11.2 µM [inhibitor, partial curve]"
4,Clc1ncc(Cn2cccn2)s1,inactive
5,Nc1nc(Cn2nnc(-c3ccccc3Cl)n2)nc(N2CCOCC2)n1,"inconclusive: 10 µM [inhibitor, partial curve]"
6,O=c1[nH]c2cc3c(cc2cc1CN(CC1CCCO1)S(=O)(=O)c1ccc(Cl)cc1)OCCO3 (configuration not stated),inactive
7,Cc1ccc(C)c(OCC(=O)O/N=C(\N)c2cccc([N+](=O)[O-])c2)c1,"inconclusive: 14.1 µM [inhibitor, partial curve]"
8,CCOC(=O)c1c(NC(=O)c2ccccc2Cl)sc2c1CCc1ccccc1-2,active: 7.94 µM
9,CC(=O)Nc1sc(N/N=C/c2ccccc2F)nc1-c1ccc(C)cc1,active: 12.6 µM
10,CC1CCCN(C(=S)Nc2ccc(Nc3ccccc3)cc2)C1 (configuration not stated),"inconclusive: 31.6 µM [inhibitor, single point]"
11,C=C1CCN(c2ccc(C(=O)NCc3ccc(OC)cc3)cc2[N+](=O)[O-])CC1,"inconclusive: 28.2 µM [inhibitor, partial curve, poor fit]"
12,COCc1cc(C)n(CC(=O)Nc2ccc3c(c2)OCO3)c(=O)c1C#N,inactive
13,OC1(c2cccc(C(F)(F)F)c2)CCN(c2ncnc3c2[nH]c2ccc(F)cc23)CC1,active: 0.708 µM
14,Cc1cc(-c2ccccc2)nc2[n+]1CCN2C,inactive
15,COc1ccc(CN(C)C(C)C(=O)Nc2cccc3ccccc23)cc1 (configuration not stated),"inconclusive: 14.1 µM [inhibitor, single point]"
16,COc1ccc(CN(C(=O)c2nsc(Cl)c2Cl)C(C(=O)NC2CCCC2)c2ccc(C)cc2)cc1 (configuration not stated),"inconclusive: 11.2 µM [inhibitor, single point]"
17,Cc1ccccc1NC(=O)NCC1CCN(c2ccc(S(=O)(=O)N3CCOCC3)cc2)CC1,active: 35.5 µM
18,CCOC(=O)CCc1c(C(=O)OCC)[nH]c(CC)c1C(=O)OCc1ccccc1,"inconclusive: 3.98 µM [inhibitor, partial curve]"
19,O=C(OCC(=O)c1ccc[nH]1)C1=COCCO1,"inconclusive: 6.31 µM [inhibitor, partial curve]"
20,COc1ccc(-n2cc(-c3ccccc3)[n+]3c2CCCCC3)cc1,"inconclusive: 11.2 µM [inhibitor, single point]"
21,Clc1ccc2nc(CSc3nc4ccccc4o3)cn2c1,inactive
22,COc1ccc(NC(=O)CC2SC(N3CCCCC3)=NC2=O)cc1OC (configuration not stated),inactive
23,c1ccc(-c2nc(-n3ccnc3)nc(-n3ccnc3)n2)cc1,"inconclusive: 3.55 µM [inhibitor, full curve]"
24,COc1ccccc1N1CCN(Cc2cnc3ccc(Cl)cn23)CC1,"inconclusive: 22.4 µM [inhibitor, single point]"

row,SMILES,Potency
1,CC(C)(C)c1ccc(C(=O)CCC(=O)NCc2ccccc2)cc1,"inconclusive: 31.6 µM [inhibitor, single point]"
2,O=[N+]([O-])c1ccc(N=Nc2ccc(O)c3ccccc23)cc1,active: 10 µM
3,CCn1cc(C2=NC(C)CO2)c2ccccc21 (configuration not stated),"inconclusive: 5.01 µM [inhibitor, partial curve]"
4,O=C(NCCc1ccc(F)cc1)C(=O)NCC1CCCN1S(=O)(=O)c1cccs1 (configuration not stated),"inconclusive: 22.4 µM [inhibitor, single point]"
5,CC12CCC(=O)C=C1CCC1C2CCC2(C)C(O)CCC12 (configuration not stated),inactive
6,O=C(NCC(=O)N1CCN(S(=O)(=O)c2cccc(F)c2)CC1)c1ccc(Br)o1,"inconclusive: 31.6 µM [inhibitor, single point]"
7,Cc1cc(C)cc(NC(=O)CSc2nccn2Cc2ccco2)c1,inactive
8,O=C(CCC(=O)N1CCN(c2ccccc2F)CC1)c1ccc(F)cc1,inactive
9,CS(=O)(=O)c1cccc(NC(=O)c2ccc(Cl)c(Cl)c2)c1,"inconclusive: 4.47 µM [inhibitor, full curve, poor fit]"
10,COc1ccc(NC2CCCN(C(=O)CCN3Cc4ccccc4C3=O)C2)cc1 (configuration not stated),inactive
11,O=C(Nc1ccc(NC(=S)NC(=O)c2ccco2)cc1)c1ccccc1,"inconclusive: 11.2 µM [inhibitor, single point]"
12,CC(=O)NC12CC3CC(C1)CC(C(=O)OCC(=O)Nc1c(F)cccc1F)(C3)C2,inactive
13,CN(C)c1nc(OCCNC(=O)Nc2ccccc2)nc(N2CCCCC2)n1,active: 11.2 µM
14,O=C(/C=C/c1ccccc1)N(Cc1ccc(Cl)cc1)C1CCS(=O)(=O)C1 (configuration not stated),inactive
15,COc1ccc(Cl)cc1NC(=O)COC(=O)c1ccc(Cl)nc1,"inconclusive: 31.6 µM [inhibitor, single point]"
16,CC(SCc1cn2cc(Cl)ccc2n1)C(=O)O (configuration not stated),inactive
17,Cc1ccc(C)c(N2CCN(C(=O)c3ccc(CSc4nc5ccncc5[nH]4)cc3)CC2)c1,"inconclusive: 20 µM [inhibitor, single point]"
18,CSc1ccccc1OCc1cc(C(=O)N2CCN(c3ncccn3)CC2)no1,"inconclusive: 11.2 µM [inhibitor, partial curve]"
19,COc1ccc(/C=C2\CN(Cc3ccccc3)C/C(=C\c3ccc(OC)c(O)c3)C2=O)cc1O,active: 6.31 µM
20,C[C@@]12C(=O)Nc3cc(F)ccc3C(=O)N1[C@H]1c3ccccc3OC[C@@H]1[C@@H]2c1ccccc1,"inconclusive: 10 µM [inhibitor, single point]"
21,O=C(CNC(=O)CNC(=O)c1ccc(Cl)cc1Cl)NCc1cccc(Cl)c1,inactive
22,Clc1nnc(NN=C2CCCC2)c2ccccc12,"inconclusive: 10 µM [inhibitor, partial curve]"
23,N/C(=N\OC(=O)Cc1ccc(-c2ccccc2)cc1)c1cccc([N+](=O)[O-])c1,"inconclusive: 31.6 µM [inhibitor, partial curve, poor fit]"
24,Cc1cc(NC(=O)CSc2nc(-c3cccs3)cc(C(F)(F)F)n2)no1,"inconclusive: 501 nM [inhibitor, partial curve, poor fit] and inconclusive: 501 nM [inhibitor, full curve, poor fit]"

row,SMILES,Potency
1,c1ccc(-c2ccc(SCc3cccnc3)nn2)nc1,inactive
2,O=C(CSc1n[nH]c(-c2ccccn2)n1)Nc1ccccc1F,"inconclusive: 31.6 µM [inhibitor, single point]"
3,CCCCN(CC)C(=O)CSc1nc2c(sc(=S)n2-c2ccc(OCC)cc2)c(=O)[nH]1,inactive
4,COc1ccc(-c2sc3cc4c(cc3c2C#Cc2cncn2C)OCO4)cc1,active: 5.01 µM
5,O=C(NCc1cccc(Cl)c1)c1ccc(CS(=O)Cc2ccccc2Cl)o1 (configuration not stated),inactive
6,CCc1ccc(NC(=O)C2CCN(S(=O)(=O)c3cccs3)CC2)cc1,active: 4.47 µM
7,Oc1c(C(c2cccs2)N2CCN(c3cccc(Cl)c3)CC2)sc2ncnn12 (configuration not stated),"inconclusive: 8.91 µM [inhibitor, partial curve]"
8,Cc1ccc(S(=O)(=O)NC(=O)NCc2ccccc2)cc1,inactive
9,O=C(Nc1ccc2sccc2c1)c1ccc(Cl)s1,"inconclusive: 0.501 µM [inhibitor, partial curve, poor fit]"
10,CCCCSCc1ccc(C(=O)O)o1,"inconclusive: 0.562 µM [inhibitor, full curve, poor fit]"
11,CS(=O)(=O)c1ccc(C(=O)OCC(=O)NC(=O)C2COc3ccccc3O2)cc1[N+](=O)[O-] (configuration not stated),"inconclusive: 14.1 µM [inhibitor, single point]"
12,Cc1nc(C)c(C(=O)Nc2cccc(F)c2)s1,inactive
13,O=C(O)c1cccc(NC(=O)c2ccc(N3C(=O)c4ccc(C(=O)Nc5cccc(C(=O)O)c5)cc4C3=O)cc2)c1,inactive
14,CN(c1ccccc1)S(=O)(=O)c1cccc(C(=O)NC2CCCCC2)c1,"inconclusive: 10 µM [inhibitor, partial curve]"
15,COc1ccc(NC(=O)C#Cc2ccccc2)cc1,inactive
16,Cc1cc(C)cc(C(=O)Nc2ccc(N3CCCC3)cc2)c1,"inconclusive: 17.8 µM [inhibitor, partial curve, poor fit]"
17,O=C(Nc1ccc(F)cc1)C(Sc1nc2ccccc2[nH]1)c1ccccc1 (configuration not stated),"inconclusive: 11.2 µM [inhibitor, partial curve]"
18,COc1cc(/C=C\C(=O)Nc2cc(=O)n(C)c(=O)n2C)cc(OC)c1OC,"inconclusive: 7.08 µM [inhibitor, partial curve]"
19,CCc1ccc(NC(=O)N(C2CCCCC2)C(C)c2cccnc2)cc1 (configuration not stated),inactive
20,CCN(CC)S(=O)(=O)c1cc(NC(=O)CSc2nc3c(cc2C#N)C(=O)CC(C)(C)C3)ccc1C,"inconclusive: 2.51 µM [inhibitor, full curve]"
21,CC(C)Cc1ccc(S(=O)(=O)Nc2ccc3[nH]c(=O)[nH]c3c2)cc1,"inconclusive: 11.2 µM [inhibitor, partial curve]"
22,Cc1cccc(-c2nnc(SCc3nc4ccccc4[nH]3)n2Cc2ccco2)c1,"inconclusive: 35.5 µM [inhibitor, single point]"
23,CCCn1c(C)nc2cc(Cl)c(N3CCN(c4nc(-c5ccc(C)cc5)cs4)CC3)cc21,"inconclusive: 12.6 µM [inhibitor, single point]"
24,Cc1ccc(C(=S)N2CCCCCC2)cc1,inactive
